The target in assay [1] is T1, AtPRK6^LRR, extracellular LRR domain of AtPRK6 (residues 1-262) (Arabidopsis thaliana) (UniProt Q3E991).
T1 sequence: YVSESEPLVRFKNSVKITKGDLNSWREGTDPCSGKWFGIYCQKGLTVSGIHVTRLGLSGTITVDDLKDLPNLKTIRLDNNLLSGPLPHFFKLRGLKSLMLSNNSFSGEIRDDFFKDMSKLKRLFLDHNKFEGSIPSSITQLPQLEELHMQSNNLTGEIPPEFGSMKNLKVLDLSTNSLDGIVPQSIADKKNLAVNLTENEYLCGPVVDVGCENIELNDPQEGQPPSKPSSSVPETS
In words: SEC; AtPRK6^LRR co-expressed with the AtLURE1 peptide in High Five cells; secreted complex digested with Prescission Protease and purified (Ni-NTA, size-exclusion chromatography). On the technique in general: In gel filtration, larger molecules generally elute earlier.

Chains of the proteins cited; added tags and fusions are not shown. Residues count along the entry.
UniProt Q8VZG8, residues 44-707: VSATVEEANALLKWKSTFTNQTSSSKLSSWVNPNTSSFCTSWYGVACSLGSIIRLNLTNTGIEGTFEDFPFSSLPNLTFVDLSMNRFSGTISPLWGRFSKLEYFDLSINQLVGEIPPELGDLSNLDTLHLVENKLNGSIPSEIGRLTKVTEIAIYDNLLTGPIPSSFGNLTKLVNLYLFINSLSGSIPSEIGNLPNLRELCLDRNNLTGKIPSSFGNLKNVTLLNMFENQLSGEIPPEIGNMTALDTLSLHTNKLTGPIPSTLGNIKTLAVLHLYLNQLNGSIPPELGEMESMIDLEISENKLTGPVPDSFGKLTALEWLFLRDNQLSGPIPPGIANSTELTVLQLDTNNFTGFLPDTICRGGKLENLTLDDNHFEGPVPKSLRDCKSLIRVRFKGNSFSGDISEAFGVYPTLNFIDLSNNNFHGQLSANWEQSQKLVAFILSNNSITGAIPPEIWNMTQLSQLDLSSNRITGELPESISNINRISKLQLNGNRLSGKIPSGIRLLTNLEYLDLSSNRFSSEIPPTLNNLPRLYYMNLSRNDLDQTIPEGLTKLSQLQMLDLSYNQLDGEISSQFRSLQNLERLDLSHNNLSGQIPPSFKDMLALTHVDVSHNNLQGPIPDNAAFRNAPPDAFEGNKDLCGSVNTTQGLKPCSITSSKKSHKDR
UniProt P0CAY6, residues 20-90: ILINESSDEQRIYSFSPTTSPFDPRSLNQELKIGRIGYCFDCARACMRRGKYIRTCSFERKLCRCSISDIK
UniProt Q4VP10, residues 21-91: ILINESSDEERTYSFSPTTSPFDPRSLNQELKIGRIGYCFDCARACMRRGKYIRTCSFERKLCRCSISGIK

In assay [2] the target is T1, AtPRK6^LRR, extracellular LRR domain of AtPRK6 (residues 1-262) (Arabidopsis thaliana). In words: SEC; purified LRR protein and AtLURE1.2 mixed at a molar ratio of about 1:3, 4 °C 30 min; gel filtration (Hiload 200) in 10 mM Bis-Tris pH 6.0, 100 mM NaCl; fractions on SDS-PAGE; both purified.
For assay [3] the target is unchanged. In words: crystal structure; AtPRK6^LRR-AtLURE1.2 complex, two crystal forms (1.85 Å and 2.10 Å); 0.2 M MgCl2, 0.1 M Bis-Tris pH 5.5, 25% PEG 3350, 18 °C; both purified.
The target of assay [4] is T2, MIK1^LRR (residues 1-633) (Arabidopsis thaliana) (UniProt Q9M0G7).
T2 sequence: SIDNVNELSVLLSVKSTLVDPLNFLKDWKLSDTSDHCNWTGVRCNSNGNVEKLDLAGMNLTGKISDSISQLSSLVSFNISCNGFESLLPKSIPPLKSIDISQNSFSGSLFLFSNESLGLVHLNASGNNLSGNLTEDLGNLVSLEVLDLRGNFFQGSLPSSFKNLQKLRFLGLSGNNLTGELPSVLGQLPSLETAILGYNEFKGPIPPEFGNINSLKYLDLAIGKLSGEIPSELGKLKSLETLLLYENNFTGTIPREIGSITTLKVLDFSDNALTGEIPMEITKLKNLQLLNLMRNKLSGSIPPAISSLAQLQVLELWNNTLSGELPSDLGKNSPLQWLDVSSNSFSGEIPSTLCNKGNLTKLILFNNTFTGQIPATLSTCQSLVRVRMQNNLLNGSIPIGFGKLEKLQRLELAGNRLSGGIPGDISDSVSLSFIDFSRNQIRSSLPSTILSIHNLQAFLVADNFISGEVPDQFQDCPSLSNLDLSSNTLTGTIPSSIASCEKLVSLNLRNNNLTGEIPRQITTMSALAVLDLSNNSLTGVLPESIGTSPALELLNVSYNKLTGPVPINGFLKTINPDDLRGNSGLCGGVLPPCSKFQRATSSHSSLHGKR
In words: SEC; purified LRR protein and AtLURE1.2 mixed at a molar ratio of about 1:3, 4 °C 30 min; gel filtration (Hiload 200) in 10 mM Bis-Tris pH 6.0, 100 mM NaCl; fractions on SDS-PAGE; both purified.

Assay [5] concerns the target T3, AtPRK3^LRR (residues 1-241) (Arabidopsis thaliana) (UniProt Q9M1L7).
T3 sequence: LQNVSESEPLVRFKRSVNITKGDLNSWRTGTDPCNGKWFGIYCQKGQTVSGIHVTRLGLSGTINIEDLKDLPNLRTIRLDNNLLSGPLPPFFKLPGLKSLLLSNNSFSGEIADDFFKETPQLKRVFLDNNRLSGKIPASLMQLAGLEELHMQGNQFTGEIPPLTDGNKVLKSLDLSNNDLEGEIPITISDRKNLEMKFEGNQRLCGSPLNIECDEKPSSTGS
The assay is described as above.

Assay [6] has as its target MIK2^LRR (residues 1-707) (Arabidopsis thaliana) (UniProt Q8VZG8). The assay is described as above.
Assay [7] concerns the target T3, AtPRK3^LRR (residues 1-241) (Arabidopsis thaliana). In words: condition: about 0.9 mM AtLURE1.2 injected into 0.08 mM AtPRK3^LRR; ITC; ITC200, 25 °C, 200 mM HEPES pH 7.0, 100 mM NaCl; about 0.9 mM AtLURE1.2 injected (20 x 2 μl) into 0.08 mM LRR protein in the cell; both purified.
Assay [8] addresses T2, MIK1^LRR (residues 1-633) (Arabidopsis thaliana). In words: condition: similar concentration (about 0.9 mM AtLURE1.2 into 0.08 mM LRR protein); ITC; ITC200, 25 °C, 200 mM HEPES pH 7.0, 100 mM NaCl; about 0.9 mM AtLURE1.2 injected (20 x 2 μl) into 0.08 mM LRR protein in the cell; both purified.
Assay [9] concerns the target MIK2^LRR (residues 1-707) (Arabidopsis thaliana) (UniProt Q8VZG8). Described as above.
For assay [10], the target named is T1, AtPRK6^LRR, extracellular LRR domain of AtPRK6 (residues 1-262) (Arabidopsis thaliana). In words: pull-down; His-tagged LRR protein mixed with excess AtLURE1.2 peptide and held on Ni-NTA resin, on ice 30 min; washed five times with 25 mM Tris pH 8.0, 150 mM NaCl, 15 mM imidazole; eluted with 250 mM imidazole; SDS-PAGE, Coomassie; both purified.
The target in assay [11] is T4, AtPRK5^LRR (residues 1-279) (Arabidopsis thaliana) (UniProt Q9LPT1).
T4 sequence: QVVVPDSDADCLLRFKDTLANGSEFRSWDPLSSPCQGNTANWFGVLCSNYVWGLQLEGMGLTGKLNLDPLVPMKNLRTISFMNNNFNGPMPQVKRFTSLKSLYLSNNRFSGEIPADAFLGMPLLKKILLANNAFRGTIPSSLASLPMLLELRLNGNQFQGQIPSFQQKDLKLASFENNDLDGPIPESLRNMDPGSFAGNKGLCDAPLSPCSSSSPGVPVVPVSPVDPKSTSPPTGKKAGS
Described as above.

Assay [12] has as its target T2, MIK1^LRR (residues 1-633) (Arabidopsis thaliana). The description is as above.
Assay [13] concerns the target T3, AtPRK3^LRR (residues 1-241) (Arabidopsis thaliana). The assay is described as above.
Assay [14] addresses MIK2^LRR (residues 1-707) (Arabidopsis thaliana) (UniProt Q8VZG8). The assay is described as above.
Assay [15] concerns the target T5, AtPRK4^LRR (residues 1-277) (Arabidopsis thaliana) (UniProt Q9LJY0).
T5 sequence: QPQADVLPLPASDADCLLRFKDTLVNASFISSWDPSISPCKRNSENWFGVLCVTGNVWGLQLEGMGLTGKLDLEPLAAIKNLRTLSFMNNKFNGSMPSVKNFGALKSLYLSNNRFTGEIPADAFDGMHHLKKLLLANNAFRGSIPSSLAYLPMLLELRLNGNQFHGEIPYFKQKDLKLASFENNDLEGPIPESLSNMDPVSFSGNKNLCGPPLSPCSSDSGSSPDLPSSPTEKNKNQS
The description is as above.

Numbering of substitutions follows the chain as printed. These are yes or no findings as the source states them, for the method shown. Some entries that bind do so weakly or less than the wild type.

B1: AtLURE1.1, mature form (residues 20-94) (peptide, UniProt Q4VP09 20-94)
chain: ILIKESSEEERIYPFNPVASPFDPRSLNQILKIGKIGYCFDCARACMRRDRYIRTCSFERKLCRCSYSHIHHTHG
As for B1, the binding entry in assay [1] is “binds”.

B2: AtPRK6^LRR, extracellular LRR domain of AtPRK6 (residues 1-262) (domain or fragment, UniProt Q3E991 27-262)
chain: T1 sequence
In the case of B2, in assay [2], the binding entry is “no binding”.

B3: AtLURE1.2, mature form (residues 20-90) (peptide, UniProt Q4VP08 20-90, looked up)
chain: TLINGSSDEERTYSFSPTTSPFDPRSLNQELKIGRIGYCFDCARACMRRGKYIRTCSFERKLCRCSISDIK
notes: AtLURE1.2, defensin-like cysteine-rich peptide of Arabidopsis thaliana, mature form, residues 20-90; Cloned in pFastBac-1 behind a modified N-terminal hemolin signal peptide and a 6xHis-SUMO tag; Likely glycosylated (apparent 14 kDa); also called AtLURE1.2 peptide; source: also co-expressed with AtPRK6^LRR for the crystallised complex; not shown: His6, N-terminal, cleaved; SUMO, N-terminal, …
On to B3, for which the binding result in [3] is “binds”; in [2] it was “binds”; in [4], “no binding”; in assay [5] it was “no binding”; in assay [6], “no binding”; in [7], “no binding”. Moreover, the binding result is recorded as “no binding” in assay [8]; “no binding” in [9]; “binds” in assay [10]; “no binding” in assay [11]; “no binding” in [12]; “no binding” in [13]. For the same molecule, the binding result in assay [14] and in assay [15] was “no binding” each time.

B4: AtLURE1.4, mature form (residues 20-90) (peptide, UniProt P0CAY6 20-90)
chain: B3 chain with T1I, G5E, E10Q, T12I
Take B4: the binding entry in assay [1] is given as “binds”.

B5: AtLURE1.3, mature form (residues 21-91) (peptide, UniProt Q4VP10 21-91)
chain: B3 chain with T1I, G5E, D69G
Consider B5, for which the binding result in [1] is on record as “binds”.

For the origin of these results see article PMC5673899, “Structural basis for receptor recognition of pollen tube attraction peptides” (Nature Communications, 2017).
